Data as given in PubChem BioAssay AID624417 (National Center for Advancing Translational Sciences (NCATS), 2012).
The campaign covered roughly 410,000 compounds. About 6,400 (1.6%) were called active. Inconclusive means that the source gave no clear call. Such entries were picked first, then a sample of the others. The call rests on the fitted dose curve; in most records, active means well fitted inhibition curve with a large enough effect; inconclusive means small, poorly fitted or top-dose-only effect; inactive means no such curve, though single readings can be large or run the other way. No potency is given beside an inconclusive call; the fits are too rough.
Further: nearly all actives have a fitted effect of over 55% in size.
Potency means the concentration at half of the fitted maximal effect; tags describe the fitted curve by direction and shape.

These compounds were tested against Glucagon-like peptide 1 receptor (Homo sapiens) (UniProt P43220) (assay: qHTS of GLP-1 Receptor Inverse Agonists (Inhibition Mode)). Details: HEK293 GLP-1R CRE-luciferase, luminescence, 24 h, GLP-1R form is constitutively active; series mostly up to 38.3 µM.
Chain of UniProt P43220 (P43220 whole entry, looked up): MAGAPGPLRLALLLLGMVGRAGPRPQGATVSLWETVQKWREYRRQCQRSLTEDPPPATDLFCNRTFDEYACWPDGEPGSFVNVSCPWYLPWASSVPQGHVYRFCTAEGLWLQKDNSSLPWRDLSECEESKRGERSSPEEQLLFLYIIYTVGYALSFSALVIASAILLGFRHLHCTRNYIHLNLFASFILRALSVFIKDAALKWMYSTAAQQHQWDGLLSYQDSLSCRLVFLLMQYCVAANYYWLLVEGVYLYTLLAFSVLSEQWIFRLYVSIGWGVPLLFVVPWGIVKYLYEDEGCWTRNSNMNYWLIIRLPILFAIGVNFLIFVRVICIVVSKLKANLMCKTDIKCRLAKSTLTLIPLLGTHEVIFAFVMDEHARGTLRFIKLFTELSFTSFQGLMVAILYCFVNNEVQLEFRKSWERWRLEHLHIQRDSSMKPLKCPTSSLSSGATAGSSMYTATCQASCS
How it was run: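 Inverse agonism was detected as reduced cAMP-driven luciferase luminescence after 24 h compound treatment. The cells were HEK293 clones expressing constitutively active human GLP-1R with the reporter. Reporter-only and GPR119 cell lines served as counterscreen controls.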
`COc1ccc(-n2ncc3c(N4CCCCC4)ncnc32)cc1` was tested, and the Potency was “inactive”. With `COc1ccc(C(=O)NC2CC2)cc1OC1CCN(Cc2ccc(SC)cc2)CC1` the Potency was inconclusive [inhibitor, partial curve, poor fit]. In the case of `CCC(=O)NC(=S)Nc1c(C)cc(Br)cc1C`, the Potency is reported as inconclusive [inhibitor, partial curve, poor fit]. In the case of `Cc1cccc(C)c1NC(=S)N(CCCN1CCN(C)CC1)Cc1cccs1`, the Potency is reported as “inactive”. With `COc1ccc(CNC(=O)c2cnn(-c3ccc(C)cc3)c2-n2cccc2)cc1OC` the Potency was “inactive”. In the case of `Cc1nc2ccc(Cl)cn2c1C(=O)NN`, the Potency is reported as inconclusive [inhibitor, full curve]. `c1ccc(-c2ccc(CN3CCSCC3)cc2)cc1` was tested, and the Potency was inconclusive [inhibitor, partial curve, poor fit]. In the case of `COc1ccccc1C(CNC(=O)c1cccc(NS(=O)(=O)c2ccc(C)c(F)c2)c1)N(C)C` (configuration not stated), the Potency is reported as inconclusive [inhibitor, single point]. `Cc1ccc(NC(=S)N(CCCN2CCC(C)CC2)Cc2ccco2)cc1C` was tested, and the Potency was inconclusive [inhibitor, partial curve, poor fit]. For `CSc1cccc(NC(C)C(=O)NCc2ccccc2)c1` (configuration not stated), the Potency was inconclusive [inhibitor, single point]. For `Cc1ccccc1C(=O)Nc1nnc(SCC(=O)NCc2ccco2)s1`, the Potency was inconclusive [inhibitor, partial curve, poor fit]. For `Cc1cc2cc(CCNC(=O)c3cccs3)c(=O)[nH]c2cc1C`, the Potency was inconclusive [inhibitor, single point]. For `C=CC[C@@H](CC(=O)NCCO)C(=O)N[C@H](COC(=O)[C@@H](CC=C)Cc1ccc(F)cc1)Cc1c[nH]c2ccccc12`, the Potency was inconclusive [inhibitor, single point]. For `COc1cc(CNC2CCCCC2)c(Br)cc1OC1CCCC1`, the Potency was inconclusive [inhibitor, partial curve, poor fit]. `Cc1ccc(CNC(=O)COc2ccccc2-c2ccccc2)cc1` was tested, and the Potency was inconclusive [inhibitor, single point]. In the case of `COc1ccc([C@H]2CC(=O)C=C(c3ccc4ccn(C)c4c3)C2)cc1`, the Potency is reported as inconclusive [inhibitor, single point]. For `CCOc1ccc(NC(=S)NC(C)C(c2ccccc2)N2CCN(C)CC2)cc1` (configuration not stated), the Potency was inconclusive [inhibitor, single point]. `COC(=O)[C@@]12C[C@@H](CC(=O)N3CCC(c4ccccc4)CC3)C(=O)N(Cc3ccc4c(c3)OCO4)C1=CCC(C)(C)C2` was tested, and the Potency was inconclusive [inhibitor, single point]. With `CCC(C)Sc1c(C(C)C)cnc2c1c(=O)n(C)c(=O)n2C` (configuration not stated) the Potency was “inactive”. For `Cn1c(CNC(=O)CNS(=O)(=O)c2ccc(F)cc2F)cc(=O)n(C)c1=O`, the Potency was “inactive”. With `O=C(Nc1cccc(Cl)c1)Nc1csc([N+](=O)[O-])c1` the Potency was active: 6.31 µM. For `O=C(OCc1ccccc1)N1CCC2CC1c1cc(/C=C/CCCSc3ncccn3)ccc12` (configuration not stated), the Potency was inconclusive [inhibitor, partial curve]. `COc1cccc(CN2C(=O)CN(C3CCCCC3)C(=O)C2c2ccc(OC)c(OC)c2)c1` (configuration not stated) was tested, and the Potency was “inactive”. For `O=C(Nc1ccc(CN2CCOCC2)cc1)c1ccc(-c2ccc(Br)cc2)o1`, the Potency was inconclusive [inhibitor, partial curve, poor fit]. With `CCOc1ccc(CNC(=O)C2CCN(S(=O)(=O)c3cn(C)cn3)CC2)cc1OC` the Potency was “inactive”. With `COc1ccc(NC(=S)Nc2ccccn2)c(OC)c1` the Potency was inconclusive [inhibitor, partial curve, poor fit]. With `O=C(NC(=S)N1CCc2ccccc21)c1ccc(Br)o1` the Potency was inconclusive [inhibitor, single point]. With `O=C(NCC1CC1)[C@]1(C(F)(F)F)C[C@H](CCC2CCCCC2)CCCO1` the Potency was inconclusive [inhibitor, single point]. With `COc1ccc(C2C=C(c3ccccc3)Nc3nc(NC(=O)/C=C/c4ccc(F)cc4)nn32)cc1` (configuration not stated) the Potency was “inactive”. `COc1ccc2c(c1)c1c(c(=O)n(-c3ccccc3C)c(=O)n1CC(=O)N1CCCC1)n2C` was tested, and the Potency was “inactive”. With `Cn1c(=O)[nH]c(=O)c2c1nc(N1CCNCC1)n2Cc1ccccc1` the Potency was “inactive”. For `Nc1nc2ccc([N+](=O)[O-])cc2[nH]1`, the Potency was “inactive”. In the case of `CC(C)C(NS(=O)(=O)c1cccc2cccnc12)C(=O)Nc1ccc(OC(F)(F)F)cc1` (configuration not stated), the Potency is reported as inconclusive [inhibitor, single point]. With `COc1ccc(C(=O)NC2CC2)cc1OC1CCN(Cc2ccccc2)CC1` the Potency was inconclusive [inhibitor, partial curve]. With `CCOC(=O)N1CCN(C(=O)c2ccccc2N(Cc2ccccc2)S(=O)(=O)c2ccccc2)CC1` the Potency was inconclusive [inhibitor, single point]. `CCNC(=S)N/N=C1\CCCCc2ccccc21` was tested, and the Potency was active: 3.55 µM. For `Cc1ccc(N=C2CCCN2Cc2ccccc2)c(C#N)c1`, the Potency was inconclusive [inhibitor, partial curve, poor fit]. `Cc1ccc(C(=O)NC(c2ccccc2)C(Cl)Cl)cc1` (configuration not stated) was tested, and the Potency was inconclusive [inhibitor, full curve]. With `Cc1cc(OCC(=O)Nc2cc(C(C)(C)C)on2)ccc1[N+](=O)[O-]` the Potency was inconclusive [inhibitor, full curve]. With `CCn1c(/C=C/c2ccccc2)nc2ccccc21` the Potency was inconclusive [inhibitor, single point]. `COc1cc2nc(=S)n3[nH]c(CCn4c(C)nc5ccccc54)nc3c2cc1OC` was tested, and the Potency was “inactive”. With `COC(=O)c1ccccc1NC(=O)N1CCN(C(=O)c2ccco2)CC1` the Potency was “inactive”. In the case of `O=C(Nc1ccc(S(=O)(=O)N2CCCC2)cc1)Nc1ccc(F)cc1F`, the Potency is reported as inconclusive [inhibitor, partial curve, poor fit]. For `O=C(CCN1CCN(Cc2ccccc2)CC1)NNC(=O)Nc1cccc(Cl)c1`, the Potency was inconclusive [inhibitor, single point]. With `COc1ccc(NS(=O)(=O)c2cc(OC)ccc2OC)cc1` the Potency was inconclusive [inhibitor, single point]. For `O=C(Nc1ccc(Cl)cc1)N(Cc1nc2ccccc2c(=O)[nH]1)Cc1cccs1`, the Potency was inconclusive [inhibitor, single point]. `Cc1ccc(N2C(=O)C3C4C=CC(CC4)C3C2=O)cc1Cl` (configuration not stated) was tested, and the Potency was inconclusive [inhibitor, full curve]. `NC(=O)CSc1nnc(-c2ccccn2)n1Cc1ccco1` was tested, and the Potency was “inactive”. For `CN(CC(=O)Nc1ccc(F)c(Cl)c1)S(=O)(=O)c1cccc2nsnc12`, the Potency was inconclusive [inhibitor, single point]. In the case of `CCc1cccc(NC(=O)CN(C)S(=O)(=O)c2cnc[nH]2)c1`, the Potency is reported as “inactive”. For `CCOC(=O)c1c(-c2ccccc2Cl)cn2ccccc12`, the Potency was “inactive”. In the case of `O=C1c2ccccc2C(O)(Cc2ccccc2)N1c1ccc2c(c1)OCO2` (configuration not stated), the Potency is reported as inconclusive [inhibitor, single point]. For `CC(C)c1ccc(NC(=O)C2(C)Cc3ccccc3C(=O)O2)cc1` (configuration not stated), the Potency was inconclusive [inhibitor, single point]. For `CC(C)c1ccc(NC(=O)CCC(=O)NCc2ccco2)cc1`, the Potency was inconclusive [inhibitor, single point]. In the case of `CCOC(=O)C1CCN(C(=O)c2oc3ccc(S(=O)(=O)N4CC(C)CC(C)C4)cc3c2C)CC1` (configuration not stated), the Potency is reported as inconclusive [inhibitor, partial curve]. In the case of `CCOc1ccc(CN2CCN(Cc3cccc4nonc34)CC2CCO)cc1` (configuration not stated), the Potency is reported as inconclusive [inhibitor, full curve]. For `COc1ccc(F)cc1C(=O)C1CCCN(Cc2cnc(N3CCCC3)s2)C1` (configuration not stated), the Potency was “inactive”. `CCn1c(/C=C/N(C)c2ccccc2)[n+](CC)c2ccc(Cl)cc21` was tested, and the Potency was inconclusive [inhibitor, full curve, poor fit]. With `Cc1cccc(-c2noc(CCCOc3ccc(Cl)cc3Cl)n2)c1` the Potency was inconclusive [inhibitor, single point]. With `CC(=O)c1ccc(N2CCN(C(=O)c3ccc(Cn4c(=O)[nH]c5ccccc5c4=O)cc3)CC2)cc1` the Potency was “inactive”. In the case of `O=C(N/N=C/c1ccc(Cl)cc1)c1n[nH]c2c1CCCC2`, the Potency is reported as inconclusive [inhibitor, full curve, poor fit]. In the case of `O=Cc1ccc(OCc2ccc3c(c2)OCO3)cc1`, the Potency is reported as inconclusive [inhibitor, single point]. In the case of `CC1c2ccsc2CCN1S(=O)(=O)c1ccccc1` (configuration not stated), the Potency is reported as inconclusive [inhibitor, partial curve, poor fit]. For `Cc1cc(C(C#N)c2cccc(Cl)c2)n2ncnc2n1` (configuration not stated), the Potency was inconclusive [inhibitor, single point]. In the case of `C[C@@H](C(=O)NCc1ccc(S(C)(=O)=O)cc1)[C@H]1C[C@]1(C)[C@H](NC(=O)OCc1ccccc1)c1ccccc1`, the Potency is reported as inconclusive [inhibitor, single point]. `COc1cc(CN2CCCCC2)ccc1OCc1ccccc1` was tested, and the Potency was inconclusive [inhibitor, partial curve, poor fit]. `Cc1ccc(-n2cccn2)c(CN2CCC(CO)(CCc3ccccc3)CC2)c1` was tested, and the Potency was inconclusive [inhibitor, partial curve].
